PubChem BioAssay AID1346428 (National Center for Advancing Translational Sciences (NCATS), 2018)
“And” between values parts separate entries of the source, which are not always exact repeats. Equal entries are not always repeated. The campaign covered roughly 48,000 compounds. About 1,200 (2.5%) were called active. Inconclusive results (about 2%) are left out.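 The calls were made as follows: active = activation of at least 60% and not above a set upper limit (about 1 call in 100 departs from these limits); inconclusive = activation of 40% to 60%, or above that upper limit; inactive = activation under 40%.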 The list shows a part of the results. The source holds several records for some structures; these can differ, active in one and inactive in another.

target: Probable G-protein coupled receptor 32 (Homo sapiens) (UniProt O75388); experiment: qHTS for Agonists of Human Resolvin D1 Receptor DRV1; details: CHO-K1 GPR32 beta-arrestin PathHunter luminescence, 90 min; at 76.9 µM; stronger effect = higher value; zero percent set by DMSO-only wells; also: 0% is about no effect
UniProt O75388, sequence (O75388 whole entry, looked up): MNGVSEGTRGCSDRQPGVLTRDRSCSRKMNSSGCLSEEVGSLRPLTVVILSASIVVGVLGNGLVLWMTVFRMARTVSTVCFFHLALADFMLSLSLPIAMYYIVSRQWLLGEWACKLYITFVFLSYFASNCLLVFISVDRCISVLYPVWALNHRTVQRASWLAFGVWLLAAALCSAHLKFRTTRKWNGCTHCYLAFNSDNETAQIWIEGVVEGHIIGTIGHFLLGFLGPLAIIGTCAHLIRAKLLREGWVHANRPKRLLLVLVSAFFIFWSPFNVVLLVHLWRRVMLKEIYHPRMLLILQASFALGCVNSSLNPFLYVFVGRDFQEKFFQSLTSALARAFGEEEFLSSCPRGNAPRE
Method in brief: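 Engineered CHO-K1 line co-expressing GPR32-ProLink and EA-beta-arrestin. Compound treatment lasted 90 min at 37 °C. Luminescence was recorded after 1 h with substrate at ambient temperature, relative to DMSO basal wells.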

Structure (SMILES) | activation
COc1ccc(-c2nc3n(n2)C(c2cccc(C)c2)C(C(N)=O)=C(C)N3)cc1OC (centres undefined) | inactive: -10.2%
CC(=O)c1ccc(NC(=O)c2nn(C)c3c2CS(=O)(=O)c2ccccc2-3)cc1 | inactive: -1.45%
O=C(CCBr)N1CCN(C(=O)CCBr)CC1 | inactive: -28.6%
Cc1cccc(NC(=O)c2ccc(F)c(S(=O)(=O)N3CCN(c4ccc(F)cc4)CC3)c2)c1 | inactive: -14.6%
CCOC(=O)C1=C(CN2CCCCC2)NC(=O)NC1c1ccc(OC)cc1 (centres undefined) | inactive: -4.81%
Cc1ccc(-c2cn3c(n2)sc2cc(C(=O)NC4CCCCC4)ccc23)cc1 | inactive: 0.609%
COc1ccc(CCNC(=O)CCn2c(=O)c3cccn3c3ccc(F)cc32)cc1OC | inactive: -23.7%
CCOc1ccccc1NC(=O)c1cn(C2CCCCC2)c(=O)c2c1c1ccccc1n2C | inactive: -8.36%
CCN(CC)C(=O)Nc1ccc(OCC(O)CNC(C)(C)C)c(C(C)=O)c1 (centres undefined) | inactive: 12.5%
CCc1ccccc1NC(=O)Cn1c(=O)oc2ccccc21 | inactive: -5.78%
CCCN(C(=O)Cn1nc(Cc2cccnc2)c2ccccc2c1=O)c1ccc(C(C)C)cc1 | inactive: -34.6%
CCOc1ccc(CCNC(c2nnc(-c3ccccc3)o2)c2ccccc2Cl)cc1OCC (centres undefined) | inactive: -1.95%
Cc1ccc(S(=O)(=O)Nc2nc3n(n2)C(c2ccc(Cl)cc2)C=C(c2ccccc2)N3)cc1 (centres undefined) | active: 88.5%
O=C(CN1C(=O)CC(c2ccco2)Sc2ccccc21)Nc1ccc(OC(F)(F)F)cc1 (centres undefined) | inactive: 10.7%
COc1ccc(CCNC(=O)c2cc(-c3ccc(C)c(C)c3)nc3ccccc23)cc1OC | inactive: -17.6%
CCCn1c2ccc(C)cc2c2nnc(SCCN3CCCCC3)nc21 | inactive: 13.3%
CC1=C(C(=O)OC2CCCCCC2)C(c2c(Cl)cccc2Cl)CC(=O)N1 (centres undefined) | inactive: 35.7%
Cc1ccc(NC(=O)[C@H](Cc2ccccc2)N2Cc3ccccc3C2=O)cc1F | inactive: 4.81%
COc1ccc(C(=O)NCC(c2cccs2)S(=O)(=O)c2cccs2)cc1 (centres undefined) | active: 83%
CCOc1ccc(C2CC(=O)c3c([nH]c(C(=O)OC4CCCCCC4)c3C)C2)cc1 (centres undefined) | inactive: -1.88%
CCOCCc1nn2c(=O)cc(COC(=O)c3ccc4c(c3)OCO4)nc2s1 | inactive: -7.17%

Structure (SMILES) | activation
Cc1nn(C)c2c1c(C(F)(F)F)cc(=O)n2C(C)C(=O)NCc1ccccc1 (centres undefined) | inactive: 29.6%
Cn1c(C(=O)Nc2cccc(Cl)c2)cc2c(=O)n(C)c3ccccc3c21 | inactive: -2.3%
O=C(c1ccco1)N1CCNCC1 | inactive: -52.8%
COc1ccc(-c2nc(CS(=O)CC(=O)NCc3ccccc3Cl)c(C)o2)cc1OC (centres undefined) | inactive: -11.5%
O=S(=O)(c1ccc(Br)cc1)N1CCn2cccc2C1c1ccc(Br)cc1 (centres undefined) | inactive: 17.2%
Cc1ccc(CNc2nc3nc(C)c(Cl)c(C)n3n2)cc1 | inactive: -0.575%
Cc1ccc(Cl)cc1N1CCN(C(=O)C2CCN(S(=O)(=O)c3c(C)noc3/C=C/c3ccccc3F)CC2)CC1 | inactive: -1.52%
Cc1cccc(NC(c2nnc(-c3ccccc3)o2)c2ccc(F)cc2Cl)c1C (centres undefined) | inactive: -26.1%
Cc1oc2c(c(C)cc3oc(=O)c(CC(=O)NCCc4ccc(Cl)cc4)c(C)c32)c1C | inactive: -9.53%
Cc1ccc(-c2cn3c(n2)sc2cc(C(=O)NC4CCCCCC4)ccc23)c(C)c1 | inactive: -3.82%
COc1cccc(-c2cn3c(n2)sc2cc(C(=O)NCCc4ccccc4)ccc23)c1 | inactive: -13.7%
Cc1ccc(C)c(N2CCN(CCCNC(=O)c3ccc4nc(C(C)C)oc4c3)CC2)c1 | inactive: 44.1%
O=C(NCc1ccccc1)c1ccc2c(c1)sc1nc(-c3ccc(F)cc3)cn12 | inactive: -11.9%
CC(C)c1nn2c(=O)cc(COC(=O)COc3ccccc3F)nc2s1 | inactive: -23.2%
CCc1ccccc1NC(=O)CSc1nc2ccccc2nc1Cc1cccc(OC)c1 | inactive: -10.1%
Cc1cc(C)cc(NC(=O)c2cc3c(=O)n(Cc4ccco4)ccc3nc2C)c1 | inactive: -6.41%
Cc1nc2c(-c3ccc(F)cc3)c(C)nn2c(C)c1CCC(=O)NCc1cccc(Cl)c1 | inactive: -3.11%
CCC(=O)N1CCc2cc(Br)cc(S(=O)(=O)N3CCN(c4cccc(Cl)c4)CC3)c21 | inactive: 10.6%
O=C(OCC1CCCO1)c1ccc2c(c1)N(Cc1cccc(F)c1)C(=O)c1ccccc1S2(=O)=O (centres undefined) | inactive: -31.5%
CC1CCc2nc(NC(=O)Cc3ccc(Cl)cc3)sc2C1 (centres undefined) | inactive: 34.5%
CCOc1cccc(C2c3[nH]c4ccccc4c3CCN2C(=O)Cc2cccc(OCC)c2OCC)c1 (centres undefined) | inactive: 15.1%

Structure (SMILES) | activation
Cc1cc2c(cc1S(=O)(=O)CCC(=O)N(C)Cc1ccccc1)OCC(=O)N2 | inactive: -11.5%
CSc1cccc(NC(=O)N2CCN(S(=O)(=O)c3ccc4c(ccn4C)c3)CC2)c1 | inactive: 24.1%
COc1ccc2c(CNCCc3ccccc3OC)c(C(=O)O)n(Cc3ccc(F)cc3Cl)c2c1 | inactive: 11.2%
Cc1cc(C)cc(NC(=O)CN(c2cccc(C)c2C)S(=O)(=O)c2ccccc2)c1 | inactive: 4.3%
CC1=C(C(=O)OC2CCCC2)C(c2ccc(Cl)cc2)CC(=O)N1 (centres undefined) | inactive: 39.8%
O=C(CSc1nc(-c2ccccc2)no1)N1CCN(c2ccc(F)cc2)CC1 | inactive: 24.6%
COc1ccc(C2=NS(=O)(=O)N(C)C(C(=O)NC(C)c3ccccc3)=C2)cc1OC (centres undefined) | inactive: -8.62%
COc1cccc(N2C(=O)CSC23C(=O)N(Cc2ccccc2F)c2ccccc23)c1 (centres undefined) | inactive: -12.2%
COc1ccc(-c2nc(SCCOc3cc(C)ccc3C(C)C)n3[nH]c(=O)cc3n2)cc1 | inactive: -52.2%
Cc1cccc(NC(=O)C2CCN(S(=O)(=O)c3c(C)noc3/C=C/c3ccco3)CC2)c1C | inactive: -25.9%
NS(=O)(=O)c1ccc(CCNC(=O)CCn2c(=O)c3cccn3c3cccnc32)cc1 | inactive: 0.515%
Cc1ccc(-n2ncc(C(=O)N(C)Cc3ccccc3)c2-n2cccc2)cc1 | inactive: 4.44%
Cc1cc(F)ccc1NC(=O)CN1C(=O)CCc2cc(S(=O)(=O)N3CCOCC3)ccc21 | inactive: -6.97%
COc1ccc(Cl)cc1NC(=O)c1cc2nc(-c3ccc(C)cc3)cc(C(F)(F)F)n2n1 | inactive: 30.2%
Cc1cc(Br)ccc1NC(=O)C(NS(=O)(=O)c1cccs1)c1ccccc1 (centres undefined) | inactive: -8.92%
CC(CNC(=O)c1cc2ccccn2n1)c1ccccc1 (centres undefined) | inactive: 11.4%
COc1cc2nc(N3CCN(C(=O)C4COc5ccccc5O4)CC3)nc(N)c2cc1OC (centres undefined) | active: 108% and inactive: 27.3%
CSc1nc(C)cc(Nc2cccc(C(=O)O)c2)n1 | inactive: -15.9%
CCOC(=O)C(C)Nc1ncnc2onc(C)c12 (centres undefined) | inactive: -16.7%
COc1cc(NC(=O)CCCN2C(=O)CCn3nc(-c4cn(C)c5ccccc45)cc32)cc(OC)c1 | inactive: 20.1%
Cc1c(NC(=O)c2ccc(-c3ccc(F)cc3)o2)cccc1-c1nc2ncccc2o1 | inactive: 21.6%

Structure (SMILES) | activation
Cc1sc2c(c1C)c(=O)n(-c1ccc(Cl)cc1)c(=O)n2CC(=O)c1ccccc1 | inactive: -7.96%
COc1cccc(C(=O)Nc2ccc3nc(SCC(=O)N4CCc5ccccc54)sc3c2)c1 | inactive: -6.83%
O=C(c1cnc(N2CCCCC2)c2ccccc12)N1CCN(c2ccc(F)cc2)CC1 | inactive: -24.3%
Fc1ccc(Nc2nc(-c3ccc(F)cc3)c3c(n2)-c2ccccc2OC3)cc1 | inactive: -5.16%
O=c1[nH]c2ccc(S(=O)(=O)Nc3cc(Cl)ccc3O)cc2o1 | inactive: 37.5%
CCOc1ccccc1CNC(=O)c1cc2oc3ccccc3c2n1CC | inactive: -25.6%
COc1cccc(CNC(=O)c2ccc3c(c2)sc2nc(-c4ccccc4)cn23)c1OC | inactive: -5.18%
Cc1ccc(-c2nc3scc(CCNS(=O)(=O)c4c(C)noc4C)n3n2)cc1 | inactive: -10.8%
Cn1c(=O)n(C)c2cc(N3CCOCC3)c(NS(=O)(=O)c3ccc(Br)cc3)cc21 | inactive: 37.5%
CCOc1cc(CNCCSc2nnnn2C)cc(Cl)c1OCc1ccc(Cl)cc1 | inactive: 25.7%
Cc1cccc(N2CCN(C(=O)CCCn3ncn4c(cc5occc54)c3=O)CC2)c1C | inactive: -0.997%
COc1ccc(-c2cc(C(=O)NCCc3ccccc3)c3c(-c4ccccc4)[nH]nc3n2)cc1 | inactive: -19.9%
O=C(Cc1ccc(F)cc1)Nc1cccc(-c2nc3cccnc3s2)c1 | inactive: -13.5%
O=C(NCC(c1cccnc1)N1CCc2ccccc2C1)C(=O)Nc1cccc(Cl)c1 (centres undefined) | inactive: -12.6%
Cc1ccc(CCNS(=O)(=O)c2ccc3c(c2)CCN3C(=O)CCC(=O)O)cc1 | inactive: -3.84%
CCc1ccc(NC(=O)CCc2c(C)n(C)c3cc(-c4ccccc4C)nn3c2=O)cc1 | inactive: -6.88%
CC(=O)N1CCc2c(sc3c2c(=O)n(-c2ccccc2)c(=O)n3Cc2cccc(C(F)(F)F)c2)C1 | inactive: -5.46%
Cc1ccc(/C=C/c2nc3ccccc3n2S(=O)(=O)c2ccc(Br)cc2)cc1 | inactive: 41.4%
Cc1ccccc1C(=O)N1CCCCC1CCN1CCCCC1 (centres undefined) | inactive: 0.234%
COc1ccc(N2CCN(C(=O)CCc3c(C)nc4cc(-c5cccc(F)c5)nn4c3C)CC2)cc1 | inactive: -5.58%
CCOC(=O)c1cnc2c(ccc3ccccc32)c1Nc1ccc(OC)cc1OC | inactive: -6.9%
